Measurements reported in PubChem BioAssay AID720542 (National Center for Advancing Translational Sciences (NCATS), 2013).
Out of some 360,000 compounds screened, about 740 (0.21%) were called active. The shares of active, inactive and inconclusive entries below differ from those in the screen. Calls follow the shape of the dose curve; as a rule, active = well fitted inhibition curve with a large enough effect; inconclusive = small, poorly fitted or top-dose-only effect; inactive = no such curve, though single readings can be large or run the other way. Potencies of inconclusive entries are left out as doubtful fits.

system: Plasmodium falciparum AMA1 (3D7) - RON2 peptide interaction; experiment: qHTS for Inhibitors of AMA1-RON; Towards Development of Antimalarial Drug Lead: Primary Screen; settings: AlphaScreen AMA1-biotinylated RON2 peptide binding; activity change, negative = inhibition: at 58.2 µM (top of the series) unless noted; also: nearly all actives have a fitted effect of over 45% in size;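 as to activity change, negative = inhibition: 0% = vehicle wells and -100% = peptide control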
In short: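 AMA1 (3D7) with his tag at 25 nM final met compounds first, then biotinylated RON2 peptide at 25 nM; detection used donor plus acceptor beads, 10 µg/mL apiece, read by AlphaScreen after 30 min at room temperature.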
Potency is read from the fitted curve at half-maximal effect; tags tell the direction and shape of the fitted curve.

| Structure (SMILES) | activity change, negative = inhibition | Potency |
| --- | --- | --- |
| Cc1ccccc1OCC(=O)Nc1ccccc1N1CCCCC1 | inactive: 7.99% |  |
| Cc1ccc(C)c(Nc2c([N+](=O)[O-])cc(C(=O)N3CC(=O)Nc4ccccc43)cc2[N+](=O)[O-])c1 | inactive: -9.35% |  |
| COCCOC(=O)c1c(C)n(C)c2ccc(OC(=O)N3CCOCC3)cc12 | inactive: 1.39% |  |
| CN1C(=O)C(O)(CC(=O)c2cccc(-n3cccc3)c2)c2ccccc21 (stereo not given) |  | inconclusive [inhibitor, single point] |
| CC(=O)N1N=C(c2ccccc2OC(=O)/C=C/c2ccccc2)CC1c1ccccc1 (stereo not given) |  | inconclusive [inhibitor, partial curve] |
| COc1ccc(-c2csc3ncnc(N4CCN(c5ccccc5[N+](=O)[O-])CC4)c23)cc1 |  | inconclusive [inhibitor, partial curve] |
| CCN(CC)c1ccc(C(=C2C=CC(=[N+](CC)CC)C=C2)c2ccc(N(CC)CC)cc2)cc1 |  | active: 2.24 µM |
| Nn1c(SCc2ccc(F)cc2)nnc1-c1ccccn1 |  | inconclusive [inhibitor, partial curve] |
| O=C(OCc1ccccc1)N1CCC2CC1c1cc(NCCc3ccccc3)ccc12 (stereo not given) |  | inconclusive [inhibitor, single point] |
| Cc1c([N+](=O)[O-])cnc(Sc2ccccc2)c1[N+](=O)[O-] |  | inconclusive [inhibitor, single point] |
| COc1ccc(/C=N/OCC(=O)N2CCCC2)c(OC)c1 | inactive: -10.8% |  |
| COc1ccc(Cl)cc1NC(=O)NC1CCCCC1 |  | inconclusive [inhibitor, single point] |
| CC(=O)N1CCN(CC(O)COc2ccc(Br)cc2)CC1 (stereo not given) |  | inconclusive [inhibitor, single point] |
| c1ccc(CCNc2ccccn2)nc1 | inactive: -4.99% |  |
| CCOC(=O)C1=C(SCC)c2cc3c(n2C1=O)CCCC3 |  | inconclusive [inhibitor, full curve] |
| CCCOc1ccc(/C=C2/C(=O)ON=C2C)cc1Cl | inactive: -24.4% |  |
| COCCN(CC(=O)Nc1ccc(F)cc1)S(=O)(=O)c1ccc(S(=O)(=O)N2CCCC2)cc1 |  | inconclusive [inhibitor, single point] |
| CCOC(=O)c1c(CSc2ccccc2)n(C)c2cc(Br)c(O)c(CN(C)C)c12 |  | inconclusive [inhibitor, single point] |
| O=C(CSCc1ccc([N+](=O)[O-])cc1)NC1CCCCCC1 |  | inconclusive [inhibitor, single point] |
| C=C(C)CSc1nnc2n(C)c(=O)c3c4c(sc3n12)CCC4 | inactive: -3.66% |  |
| CCN1CCN(CC(=O)c2c[nH]c3ccc(C)cc23)CC1 |  | inconclusive [inhibitor, full curve, poor fit] |
| CC(=O)c1cccc(NC(=S)N2CCN(S(=O)(=O)c3ccccc3)CC2)c1 |  | inconclusive [inhibitor, single point] |
| O=C(c1ccc(CN2CCc3ccccc3C2)cc1)N1CCN(c2ccc(F)cc2)CC1 |  | inconclusive [inhibitor, single point] |
| CCN(CC)C(=O)c1ccc2c(c1)C1C(Cl)C(Sc3ccccc3[N+](=O)[O-])CC1C(C(=O)O)N2 (stereo not given) |  | inconclusive [inhibitor, partial curve] |

| Structure (SMILES) | activity change, negative = inhibition | Potency |
| --- | --- | --- |
| O=C(CSc1ccc(Cl)cc1)NC1=NN(c2ccccc2)C(=O)C1 | inactive: 38.4% |  |
| Brc1ccccc1C1Nc2cccc3cccc(c23)N1 |  | inconclusive [inhibitor, single point] |
| CCc1ccc(N=c2c([N+](=O)[O-])nn(-c3ccccc3)n2O)cc1 |  | inconclusive [inhibitor, single point] |
| CCCCCN(C(=O)CCC(=O)OCC(=O)N1CCCC(C)C1)c1c(N)n(CCCC)c(=O)[nH]c1=O (stereo not given) |  | inconclusive [inhibitor, partial curve] |
| COc1ccc(-c2nc(C)ncc2N=Nc2ccccc2)cc1 |  | inconclusive [inhibitor, partial curve] |
| COc1cc2c(cc1NC(=O)CSc1nccn1C)oc1ccccc12 |  | inconclusive [inhibitor, single point] |
| c1ccc(-c2nnc3sc(CN4CCc5ccccc54)cn23)cc1 |  | inconclusive [inhibitor, full curve, poor fit] |
| O=C(NCCc1ccccc1)c1ccc2nc(-c3ccco3)c(-c3ccco3)nc2c1 | inactive: 1.36% |  |
| O=C(CCCC(=O)N(CC(=O)NC1CCCCC1)c1ccccc1F)Nc1ccccn1 | inactive: -8.98% |  |
| COc1ccc(NCc2ccc(OC)c(Cn3ccnc3)c2)c(OC)c1 |  | inconclusive [inhibitor, partial curve] |
| Cc1ccc(NC(=O)COc2ccccc2)c(NC(=O)c2ccco2)c1 | inconclusive: -6.52% [inhibitor] |  |
| Cn1nnc2cc(NC(=O)NCc3ccc4c(c3)OCO4)ccc21 |  | inconclusive [inhibitor, full curve, poor fit] |
| O=C(NCCNS(=O)(=O)c1ccc(Cl)cc1)c1cc(OCC(F)(F)F)ccc1OCC(F)(F)F |  | inconclusive [inhibitor, partial curve] |
| COc1ccc2nc(N=Nc3ccc(N(C)C)cc3)sc2c1 |  | inconclusive [inhibitor, full curve, poor fit] |
| CNC(=O)c1cc(C(=O)c2ccc(Cl)cc2)c[nH]1 | inconclusive: -11.5% [inhibitor] |  |
| Cc1nc2c(C)cccc2c(SC(=N)N)c1CC=C(Cl)Cl |  | inconclusive [inhibitor, single point] |
| O=[N+]([O-])c1ccc(CN2CCN(c3ccc([N+](=O)[O-])cc3)CC2)cc1 |  | inconclusive [inhibitor, single point] |
| Cc1cc(NS(=O)(=O)c2ccc(NC(=O)c3oc4ccccc4c3C)cc2)no1 |  | active: 29.9 µM |
| CC1(C)CC(NC(=O)c2ccc(-c3ccc([N+](=O)[O-])cc3)o2)CC(C)(C)N1 | inactive: 0% |  |
| Cc1ccc(-n2cnc3cc(NCc4cccs4)ccc32)cc1 |  | inconclusive [inhibitor, single point] |
| O=C(NC1=CC(=O)c2ccccc2C1=O)c1ccccc1 |  | inconclusive [inhibitor, partial curve] |
| COc1ccc(Br)cc1/C=N/N1CCN(Cc2ccccc2)CC1 |  | inconclusive [inhibitor, full curve, poor fit] |
| COc1cccc(CN2CCNC(=O)C2CC(=O)N(C)Cc2cnccn2)c1OC (stereo not given) | inactive: 19.7% |  |
| O=C(NCCc1ccccc1)C1CCN(S(=O)(=O)N2CCC3(CC2)OCCO3)CC1 | inactive: 11.6% |  |

| Structure (SMILES) | activity change, negative = inhibition | Potency |
| --- | --- | --- |
| O=C(CC1CCCC1)Nc1ccc2c(c1)CCC2 | inactive: 16.3% |  |
| CN(C)C(CNC(=O)c1ccc(-c2ccccc2)cc1)c1ccccc1 (stereo not given) |  | inconclusive [inhibitor, partial curve, poor fit] |
| COc1ccc(-c2nn(-c3ccccc3C)cc2CNCCc2cnc[nH]2)cc1F |  | inconclusive [inhibitor, single point] |
| O=[N+]([O-])c1ccc(/C=N\N2CCN(Cc3ccccc3Cl)CC2)cc1 |  | inconclusive [inhibitor, single point] |
| COC(=O)c1cn[nH]c1NC(=S)Nc1ccccc1C | inactive: 45.6% |  |
| Oc1ccc(-c2nc3ncccn3c2Nc2ccc3c(c2)OCCO3)cc1 |  | inconclusive [inhibitor, single point] |
| CCC(C(=O)NCC1CCCO1)N(C(=O)c1snc(C(N)=O)c1N)c1ccc(Cl)cc1 (stereo not given) | inactive: 2.06% |  |
| C=CCNC(=O)CSCc1ccc(Br)cc1 |  | inconclusive [inhibitor, single point] |
| COc1ccc(S(=O)(=O)N(C(=O)c2ccncc2)c2ccc3oc4c(c3c2)CCCC4)cc1 |  | inconclusive [inhibitor, partial curve] |
| Cc1cc(C)n(S(=O)(=O)c2cc(C)c(C)cc2C)n1 |  | inconclusive [inhibitor, partial curve] |
| Cc1ccc(C)c(NC(=O)C2CCCN(c3cnccn3)C2)c1 (stereo not given) | inactive: -1.53% |  |
| CC(C)/C(=N/Nc1ccccc1[N+](=O)[O-])c1ccccc1 |  | inconclusive [inhibitor, partial curve] |
| CN1C(=O)C2C(c3ccc(N(C)C)cc3)NN(Cc3ccccc3)C2C1=O (stereo not given) |  | inconclusive [inhibitor, single point] |
| Cc1cccc(-c2cc3nc4c(c(N5CCC6(CC5)OCCO6)n3n2)CCCC4)c1 | inactive: -1.34% |  |
| COc1cccc(CN(C)C(=O)C2CCC(=O)N(Cc3cccc(F)c3)C2)c1 (stereo not given) | inactive: -10.2% |  |
| CN(C(=O)c1ccco1)c1nc(CC(=O)Nc2ccccc2)cs1 | inactive: -5.52% |  |
| CN1CCN(NC(=S)Nc2ccc(Oc3ccccc3)cc2)CC1 |  | inconclusive [inhibitor, full curve] |
| CCCCCOc1ccc(OC(=O)c2ccncc2)cc1 | inactive: 9.27% |  |
| Cc1ccc(-c2nn(CC(=O)NC(C)c3ccccc3)c(=O)c3ccccc23)cc1 (stereo not given) |  | inconclusive [inhibitor, single point] |
| CNc1c(C(=O)O)ccc2c1C(=O)c1ccccc1C2=O |  | inconclusive [inhibitor, partial curve] |
| CCCC(c1nnnn1CC1CCCO1)N1CCN(c2ccccc2)CC1 (stereo not given) |  | inconclusive [inhibitor, single point] |
| O=C(CNCc1ccc(Cl)cc1)NCc1ccco1 |  | inconclusive [inhibitor, single point] |
